# Positions count from the first letter of the chain named. The list shows a part of the results.
# T1: RBFOX1 RRM RbFoxmut (Fox-RRM*) (Homo sapiens, UniProt Q9NWB1 109-208, R118D;E147R;N151S;E152T)
# T1 sequence: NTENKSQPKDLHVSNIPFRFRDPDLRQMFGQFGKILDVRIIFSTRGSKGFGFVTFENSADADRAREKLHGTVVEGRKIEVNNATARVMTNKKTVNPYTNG
# B1: GGAUAAU (DNA:RNA)
# RNA: GGGAGACCGGAAUUCAGAUUGUCCGGAUAAUUUAAAUCCCGUCGUAGCCACCA
# DNA 1: CAATCTGAATTCCGGTCTCCC
# DNA 2: TGGTGGCTACGACGGGATT
# B2: GCUCAGC (DNA:RNA)
# RNA: B1 RNA with G26C, A27U, U28C, A30G, U31C
# DNA 1: CAATCTGAATTCCGGTCTCCC
# DNA 2: TGGTGGCTACGACGGGATT
# B3: CCCGCCU (DNA:RNA)
# RNA: B1 RNA with G25C, G26C, A27C, U28G, A29C, A30C
# DNA 1: CAATCTGAATTCCGGTCTCCC
# DNA 2: TGGTGGCTACGACGGGATT
# B4: AAUUUAC (DNA:RNA)
# RNA: B1 RNA with G25A, G26A, A27U, A29U, U31C
# DNA 1: CAATCTGAATTCCGGTCTCCC
# DNA 2: TGGTGGCTACGACGGGATT
# B5: CGAGCAG (DNA:RNA)
# RNA: B1 RNA with G25C, U28G, A29C, U31G
# DNA 1: CAATCTGAATTCCGGTCTCCC
# DNA 2: TGGTGGCTACGACGGGATT
# B6: GGUCUAU (DNA:RNA)
# RNA: B1 RNA with A27U, U28C, A29U
# DNA 1: CAATCTGAATTCCGGTCTCCC
# DNA 2: TGGTGGCTACGACGGGATT
# B7: CGGUACC (DNA:RNA)
# RNA: B1 RNA with G25C, A27G, A30C, U31C
# DNA 1: CAATCTGAATTCCGGTCTCCC
# DNA 2: TGGTGGCTACGACGGGATT
# B8: CCGACGU (DNA:RNA)
# RNA: B1 RNA with G25C, G26C, A27G, U28A, A29C, A30G
# DNA 1: CAATCTGAATTCCGGTCTCCC
# DNA 2: TGGTGGCTACGACGGGATT
# B9: AACGCUU (DNA:RNA)
# RNA: B1 RNA with G25A, G26A, A27C, U28G, A29C, A30U
# DNA 1: CAATCTGAATTCCGGTCTCCC
# DNA 2: TGGTGGCTACGACGGGATT
# B10: UGUCAGA (DNA:RNA)
# RNA: B1 RNA with G25U, A27U, U28C, A30G, U31A
# DNA 1: CAATCTGAATTCCGGTCTCCC
# DNA 2: TGGTGGCTACGACGGGATT
# B11: ACUCGCG (DNA:RNA)
# RNA: GGGAGACCGGAAUUCAGAUUGUCCACUCGCGUUAAAUCCCGUCGUAGCCACCA
# DNA 1: CAATCTGAATTCCGGTCTCCC
# DNA 2: TGGTGGCTACGACGGGATT
# B12: GAGUACC (DNA:RNA)
# RNA: B1 RNA with G26A, A27G, A30C, U31C
# DNA 1: CAATCTGAATTCCGGTCTCCC
# DNA 2: TGGTGGCTACGACGGGATT
# B13: UGGGAAC (DNA:RNA)
# RNA: B1 RNA with G25U, A27G, U28G, U31C
# DNA 1: CAATCTGAATTCCGGTCTCCC
# DNA 2: TGGTGGCTACGACGGGATT
# B14: CCAGAAA (DNA:RNA)
# RNA: B1 RNA with G25C, G26C, U28G, U31A
# DNA 1: CAATCTGAATTCCGGTCTCCC
# DNA 2: TGGTGGCTACGACGGGATT
# B15: UGAAAUA (DNA:RNA)
# RNA: B1 RNA with G25U, U28A, A30U, U31A
# DNA 1: CAATCTGAATTCCGGTCTCCC
# DNA 2: TGGTGGCTACGACGGGATT
# B16: AAGCUCA (DNA:RNA)
# RNA: B11 RNA with C26A, U27G, G29U, G31A
# DNA 1: CAATCTGAATTCCGGTCTCCC
# DNA 2: TGGTGGCTACGACGGGATT
# B17: AUCGUCG (DNA:RNA)
# RNA: B11 RNA with C26U, U27C, C28G, G29U
# DNA 1: CAATCTGAATTCCGGTCTCCC
# DNA 2: TGGTGGCTACGACGGGATT
# B18: GUCAUAA (DNA:RNA)
# RNA: B1 RNA with G26U, A27C, U28A, A29U, U31A
# DNA 1: CAATCTGAATTCCGGTCTCCC
# DNA 2: TGGTGGCTACGACGGGATT
# B19: CGUUCCG (DNA:RNA)
# RNA: B11 RNA with A25C, C26G, C28U, G29C
# DNA 1: CAATCTGAATTCCGGTCTCCC
# DNA 2: TGGTGGCTACGACGGGATT
# B20: CUCGUCC (DNA:RNA)
# RNA: B11 RNA with A25C, C26U, U27C, C28G, G29U, G31C
# DNA 1: CAATCTGAATTCCGGTCTCCC
# DNA 2: TGGTGGCTACGACGGGATT
# B21: AGUCUGC (DNA:RNA)
# RNA: B11 RNA with C26G, G29U, C30G, G31C
# DNA 1: CAATCTGAATTCCGGTCTCCC
# DNA 2: TGGTGGCTACGACGGGATT
# B22: GGCGGAG (DNA:RNA)
# RNA: B1 RNA with A27C, U28G, A29G, U31G
# DNA 1: CAATCTGAATTCCGGTCTCCC
# DNA 2: TGGTGGCTACGACGGGATT
# B23: UUCCUGA (DNA:RNA)
# RNA: B11 RNA with A25U, C26U, U27C, G29U, C30G, G31A
# DNA 1: CAATCTGAATTCCGGTCTCCC
# DNA 2: TGGTGGCTACGACGGGATT
# B24: UACAAGA (DNA:RNA)
# RNA: B1 RNA with G25U, G26A, A27C, U28A, A30G, U31A
# DNA 1: CAATCTGAATTCCGGTCTCCC
# DNA 2: TGGTGGCTACGACGGGATT
# B25: UCAGUGC (DNA:RNA)
# RNA: B11 RNA with A25U, U27A, C28G, G29U, C30G, G31C
# DNA 1: CAATCTGAATTCCGGTCTCCC
# DNA 2: TGGTGGCTACGACGGGATT
# B26: UUGUCCA (DNA:RNA)
# RNA: B11 RNA with A25U, C26U, U27G, C28U, G29C, G31A
# DNA 1: CAATCTGAATTCCGGTCTCCC
# DNA 2: TGGTGGCTACGACGGGATT
# B27: ACUGUAG (DNA:RNA)
# RNA: B11 RNA with C28G, G29U, C30A
# DNA 1: CAATCTGAATTCCGGTCTCCC
# DNA 2: TGGTGGCTACGACGGGATT
# B28: GAUCGAA (DNA:RNA)
# RNA: B11 RNA with A25G, C26A, C30A, G31A
# DNA 1: CAATCTGAATTCCGGTCTCCC
# DNA 2: TGGTGGCTACGACGGGATT
# B29: AACCCUG (DNA:RNA)
# RNA: B11 RNA with C26A, U27C, G29C, C30U
# DNA 1: CAATCTGAATTCCGGTCTCCC
# DNA 2: TGGTGGCTACGACGGGATT
# B30: CAGCAGG (DNA:RNA)
# RNA: B11 RNA with A25C, C26A, U27G, G29A, C30G
# DNA 1: CAATCTGAATTCCGGTCTCCC
# DNA 2: TGGTGGCTACGACGGGATT
# B31: UCUAUGA (DNA:RNA)
# RNA: B11 RNA with A25U, C28A, G29U, C30G, G31A
# DNA 1: CAATCTGAATTCCGGTCTCCC
# DNA 2: TGGTGGCTACGACGGGATT
# Target: T1, RBFOX1 RRM RbFoxmut (Fox-RRM*)
# Test: EMSA; HiTS-Eq, 1 nM pool, 10 min; buffer printed only for the single-RNA assays: 10 mM Tris pH 7.5, 150 mM NaCl, 3.4 mM EDTA, 0.001% NP-40, 30 C
# Conditions: tags: His6 N-terminal (pET28a); label: 5' 32P
# Summary of the method: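 Purified RbFox RRM (wild type or mutant) was equilibrated for 10 min in 50 µL with 1 nM of a 5′-radiolabelled pool of RNA with 7 randomized nucleotides, its flanks annealed to DNA oligonucleotides, across increasing protein concentrations. Free RNA was separated by 8% native PAGE, excised, reverse-transcribed, PCR-barcoded and sequenced on an Illumina HiSeq 2500. Relative association constants came from read-count changes of each variant against the control reaction, normalised to the cognate motif.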
row,Binder,binding signal
1,B1,0.0888 KA relative to UGCAUGU
2,B2,0.0895 KA relative to UGCAUGU
3,B3,0.0593 KA relative to UGCAUGU
4,B4,0.113 KA relative to UGCAUGU
5,B5,0.0773 KA relative to UGCAUGU
6,B6,0.1 KA relative to UGCAUGU
7,B7,0.102 KA relative to UGCAUGU
8,B8,0.0783 KA relative to UGCAUGU
9,B9,0.0863 KA relative to UGCAUGU
10,B10,0.103 KA relative to UGCAUGU
11,B11,0.0932 KA relative to UGCAUGU
12,B12,0.103 KA relative to UGCAUGU
13,B13,0.0921 KA relative to UGCAUGU
14,B14,0.127 KA relative to UGCAUGU
15,B15,0.0989 KA relative to UGCAUGU
16,B16,0.104 KA relative to UGCAUGU

row,Binder,binding signal
1,B17,0.14 KA relative to UGCAUGU
2,B18,0.12 KA relative to UGCAUGU
3,B19,0.113 KA relative to UGCAUGU
4,B20,0.0737 KA relative to UGCAUGU
5,B21,0.0707 KA relative to UGCAUGU
6,B22,0.0884 KA relative to UGCAUGU
7,B23,0.0673 KA relative to UGCAUGU
8,B24,0.058 KA relative to UGCAUGU
9,B25,0.116 KA relative to UGCAUGU
10,B26,0.126 KA relative to UGCAUGU
11,B27,0.143 KA relative to UGCAUGU
12,B28,0.113 KA relative to UGCAUGU
13,B29,0.0815 KA relative to UGCAUGU
14,B30,0.0987 KA relative to UGCAUGU
15,B31,0.11 KA relative to UGCAUGU

# Source: article PMC9911399, “Two distinct binding modes provide the RNA-binding protein RbFox with extraordinary sequence specificity”
